# Source: ChEMBL document CHEMBL4888484, “Replenishing the malaria drug discovery pipeline: Screening and hit evaluation of the MMV Hit Generation Library 1 (HGL1) against asexual blood stage Plasmodium falciparum ,using a nano luciferase reporter read-out” (2022)
# About 540 (0.36%) of roughly 150,000 compounds showed an effect of 50% or more. The list shows a part of the results.
# Tested on: Plasmodium falciparum
# Test: Primary screen in NF54 nanoGlo assay, in single point, at 2uM, 72h; a lower Z score goes with more inhibition
# Assay type: functional, Erythrocyte
# Conditions: timepoint 72 hour
SMILES,% Inhibition [%],Z score
COc1ccc(CN2CC[C@]3(O)CCN(C(C)=O)C[C@@H]3C2)c(Cl)c1OC,-7,1.33
FC(F)Oc1ccc(-c2nc3c(cnn3Cc3cccs3)[nH]2)cc1,15,-2.35
CC(O)CC1CCCN1C(=O)C1CC=CCC1 (stereo unspecified),12,-1.04
CC1CC(C)CN(C(=O)C2CCC(=O)N(C)C2c2ccccc2F)C1 (stereo unspecified),30,-3.97
CC1(C)C(=O)Nc2ccc(C(=O)NCC(C)(C)C3CCOCC3)cc21,5,-0.69
CCCOC[C@H]1CCN(C(=O)c2[nH]c3c(C)ccc(C)c3c2C)C1,-13,1.53
CC1CCCCC1CC(=O)N1CCC(c2ncon2)C1 (stereo unspecified),-3,0.43
Nc1cc(C(=O)N2CCC[C@@]3(CCC(=O)N(Cc4cccnc4)C3)C2)ccn1,-10,1.13
COc1ncccc1[C@H]1CCN(C(=O)c2c(C)noc2C(C)C)C1,-8,1.55
Cn1c(=O)[nH]c(=O)c2c1nc(N1CCN(c3ccccc3)CC1)n2Cc1cccc2ccccc12,-2,0.32
Cc1n[nH]c(C)c1CNC(=O)[C@H]1CC(=O)N(Cc2ccncc2)C1,-10,1.25
Cc1ccc2c(c1)Oc1cc(Cl)c(S(=O)(=O)N3CCc4ccccc43)cc1C(=O)N2,-11,1.58
Cc1nc(CNCc2c(C)nn(C)c2Cl)cs1,-22,2.18
C/C(=C\c1ccccc1)CN1CCOCC1,-9,1.28
CC(C)(C)c1ccc2oc(CNC(=O)CCC3=NNC(=O)CC3)nc2c1,-16,2.07
Nc1nc(CCC(=O)N[C@H]2CC[C@H]2NC2CCCCCC2)cs1,10,-1.48
CCOc1cc(C(=O)N(C)C)ccc1NCc1ccon1,-9,0.93
C[C@@H](c1cc(F)cc(F)c1)N1CC2(CCNCC2)CCC1=O,-12,2.33
Clc1ccc(Oc2ncnc3[nH]ccc23)cc1Cl,-4,0.51
O=C(Cn1cc(CC2(O)CCC2)nn1)C1(c2ccccc2)CC1,-7,0.93
O=C(c1ccccc1F)N(Cc1nccn1Cc1ccccc1Cl)CC1CC1,20,-3.35
Cc1ccc(CN(CC(O)COC(C)(C)C)CC2CCCO2)o1 (stereo unspecified),-6,0.91

SMILES,% Inhibition [%],Z score
COc1c(CN2CCC(c3ccn[nH]3)CC2)c(C)nn1C,3,-0.53
Cc1cnn(CCC(=O)NC[C@H](O)c2c(Cl)cccc2Cl)c1,-4,0.77
Cc1ccnc(Oc2ccc(NC(=O)N3CCCc4ccccc4C3)cc2)n1,-9,0.94
Cc1[nH]c2ccc(C(=O)N3CCC(Oc4ccc(CN(C)Cc5cnn(C)c5)cc4)CC3)cc2c1C,1,-0.07
O=C(N[C@@H]1CCC[C@H]1OCc1ccccc1)c1ccn2nnnc2c1,-9,1.77
Cc1nc2cccnc2n1-c1cccc(C(=O)N2CCN(c3ccccc3F)CC2)c1,-4,0.54
CN=C(N)N[C@@H](C)c1ccc(C)c(F)c1,9,-1.23
CN(CCc1ncon1)C(=O)[C@]1(C)CCCO1,-14,1.84
COc1ccc(S(=O)(=O)N2CCC3(CC2)C[C@@H](N2CCOCC2)CCO3)cc1,-9,1.13
CC(C)C(=O)N1CC(=O)N(C)[C@@H]1c1ccccc1,4,-0.7
COc1ccc(CCc2n[nH]c(NC(=O)c3cccnc3)n2)cc1,11,-1.62
COCCNC(=O)[C@H]1C[C@H](Oc2ccccc2)CN1S(=O)(=O)Cc1ccccc1,-9,1.7
CC[C@@H](C#N)NC(=O)c1c(C)cccc1C,-6,0.66
CC(C)c1csc(CNC(=O)C2(N(C)C)CCCC2)n1,-17,1.86
Oc1cccc(-c2nccn2C2CCCC2)c1,1,-0.17
O=C(OCC(F)(F)F)N1CCOCC1,1,-0.08
C[C@@H](Cn1cnc2ccccc2c1=O)NCc1csc(N)n1,-17,2.16
CCC1CCC(CNC(=O)CCCn2cncn2)CC1 (stereo unspecified),-1,0.23
COC(=O)c1cc2n(n1)C[C@@](C)(C(=O)NC1CCC(C)CC1)N(c1ccc(C(C)C)cc1)C2=O (stereo partly specified),-7,1.11
CCCC[C@H]1CN(c2ccccc2OC)C(=O)CN1Cc1coc(C)n1,-3,0.53
CCC(C)(C)NC(=O)c1ccc(S(=O)(=O)N(C)C)cc1,11,-1.32
